# Assay results as given in the supplement of paper PMC4166925.
# ± gives the standard deviation of the averaged measurements. In all, about 33,000 sequences were measured (“E-score (dimensionless, -0.5 to 0.5)”: median about -0.049, highest 2% from about 0.37 on). The list shows a part of the results.
# System: T1, PmTbr T-box DNA-binding domain (GST fusion)
# T1 sequence: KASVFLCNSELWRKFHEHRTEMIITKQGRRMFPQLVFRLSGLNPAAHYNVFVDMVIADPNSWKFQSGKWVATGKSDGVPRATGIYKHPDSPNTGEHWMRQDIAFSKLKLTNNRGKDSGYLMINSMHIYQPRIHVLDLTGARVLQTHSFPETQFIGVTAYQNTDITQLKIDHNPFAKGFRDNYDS
# Test: PBM E-score of 8-mer (E-score (dimensionless, -0.5 to 0.5)); Tbr is Tbrain of the sea star Patiria miniata (Pm) or the sea urchin Strongylocentrotus purpuratus (Sp); higher = stronger binding preference; most listed sequences are background and not binding sites
# Settings: the construct has about 5 more residues each side
# In short: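 Primer extension turned Universal Agilent oligonucleotide arrays double-stranded. They were incubated with 200 nM protein in PBS (pH 7.5); the protein was a GST-fused Tbr T-box DNA-binding domain expressed in BL21 E. coli at 20 °C and purified on glutathione. Every ungapped 8-mer was scored from the scanned, quantified probe intensities, and the Universal PBM Analysis Suite gave each an enrichment E-score averaged over duplicate arrays.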
row,Sequence,PBM E-score of 8-mer
1,ACACGCGC,0.1959 ± 0.00046
2,CTAAGGCA,-0.047 ± 0.033
3,GAGTTGCA,0.0621 ± 0.02
4,CTCGAATA,-0.069 ± 0.011
5,CCGCACAA,0.0713 ± 0.018
6,ATGCACCG,-0.192 ± 0.0038
7,AAAGAATT,-0.166 ± 0.029
8,AAGTGGTC,-0.0639 ± 0.02
9,CTGCCATC,-0.00283 ± 0.029
10,GAGGTACC,0.0258 ± 0.047
11,ACCCGCTA,0.238 ± 0.011
12,CGACACCC,0.439 ± 0.022
13,AGAAGTAA,-0.0294 ± 0.013
14,ATTCTGTA,-0.126 ± 0.008
15,AAATTATG,-0.118 ± 0.079
16,CGCATCTA,0.0516 ± 0.011
17,CATGTCCC,-0.132 ± 0.1
18,CCGTTAAG,0.15 ± 0.027
19,GATCAGCC,-0.106 ± 0.034
20,TGCAATAA,-0.0778 ± 0.034
21,CGGTAGAA,-0.187 ± 0.086
22,ATTGACGG,0.113 ± 0.022
23,CGGATTGA,-0.148 ± 0.016
24,AACGTGAC,0.311 ± 0.0059
25,AGTTTGGG,-0.00971 ± 0.042

row,Sequence,PBM E-score of 8-mer
1,AGCGGATC,0.00512 ± 0.11
2,AATCAGTG,0.0944 ± 0.02
3,AATGATGC,-0.00771 ± 0.035
4,AGCAAAAC,0.106 ± 0.071
5,GCCCTTAC,0.00263 ± 0.059
6,ACCACCAG,-0.0603 ± 0.036
7,CTATAAGA,0.0506 ± 0.046
8,GCGGGCAC,0.118 ± 0.016
9,CAGGGGCC,-0.05 ± 0.046
10,ACTCGAGA,-0.0844 ± 0.022
11,GTCATCGA,0.152 ± 0.015
12,TCCGTCGA,-0.11 ± 0.028
13,CTCCTCAG,-0.0996 ± 0.015
14,TCGAAACA,0.0449 ± 0.078
15,CTTCCAGC,-0.0987 ± 0.018
16,TCCTGCGA,0.0825 ± 0.047
17,ATGCTTTA,-0.172 ± 0.03
18,GGCGCGCA,0.0945 ± 0.0047
19,CGGAGGTA,-0.188 ± 0.066
20,AGCTTTTC,0.0818 ± 0.069
21,AGAGGTCG,-0.0884 ± 0.068
22,CTTGTAAC,0.0484 ± 0.04
23,AGGTTACG,0.036 ± 0.069
24,CTCGAGTA,-0.107 ± 0.039
25,ACATTAGT,-0.145 ± 0.042

row,Sequence,PBM E-score of 8-mer
1,GTAAGCAA,-0.113 ± 0.031
2,CCGCAGTA,-0.0657 ± 0.021
3,TACGAGGA,-0.306 ± 0.018
4,AATACTTA,-0.153 ± 0.085
5,ATACTTAA,-0.187 ± 0.096
6,TAATTCGA,-0.0911 ± 0.044
7,CTTTTGGC,0.0565 ± 0.0061
8,AATGCAAC,-0.118 ± 0.034
9,CTGACATC,-0.0976 ± 0.035
10,ATTTCAGC,-0.136 ± 0.06
11,CAGTTTAA,-0.0321 ± 0.037
12,ACCTGGGA,0.102 ± 0.0023
13,AATGTGGA,-0.0139 ± 0.042
14,CATTCAGG,0.0358 ± 0.077
15,ACAGGCAA,-0.269 ± 0.037
16,CATAGGGC,-0.078 ± 0.024
17,GACGGGTA,-0.00653 ± 0.016
18,ATTGCCAA,0.00956 ± 0.072
19,AGAGCGGC,-0.0276 ± 0.0046
20,ATATGATC,-0.284 ± 0.078
21,GCCAAAGA,-0.093 ± 0.06
22,GTGAAGCA,0.118 ± 0.0054
23,GAATGCGC,-0.052 ± 0.077
24,CGGTGTGA,0.451 ± 0.0064
25,CCTGGGGA,0.131 ± 0.015

row,Sequence,PBM E-score of 8-mer
1,ATGACTAA,-0.173 ± 0.031
2,ACCGATGC,-0.0502 ± 0.0062
3,CAAGAGCG,-0.102 ± 0.013
4,GTAGACAC,0.337 ± 0.013
5,CAGGTAAA,-0.0189 ± 0.11
6,CACACCGA,0.193 ± 0.0051
7,GGTTGACA,0.3518 ± 0.0019
8,ACATAACT,-0.148 ± 0.022
9,GCTGAGCC,-0.116 ± 0.11
10,AAGAAAGG,-0.198 ± 0.12
11,AGCTTCAG,0.0462 ± 0.017
12,AGAAAATG,-0.0429 ± 0.12
13,CATGCGAG,0.128 ± 0.045
14,ATCGAAGC,-0.217 ± 0.051
15,ACAGGGAT,-0.169 ± 0.021
16,ACCAACCA,0.116 ± 0.0098
17,CAGGGACC,-0.32 ± 0.047
18,CGTCGTTC,0.134 ± 0.0037
19,AGCCCCAT,-0.228 ± 0.068
20,CCATGGGA,-0.0559 ± 0.0052
21,CTTCCGTC,0.0388 ± 0.046
22,CATGAGAA,-0.0999 ± 0.071
23,CCTGGGTA,-0.1 ± 0.024
24,CCATTCAC,0.231 ± 0.025
25,AAAACCCT,-0.28 ± 0.093

row,Sequence,PBM E-score of 8-mer
1,CCGGGGCA,-0.143 ± 0.072
2,CCCATTAC,-0.13 ± 0.025
3,GGGCCGAC,-0.134 ± 0.1
4,CCATCTAG,0.000375 ± 0.038
5,CGTTTACA,0.148 ± 0.017
6,GATACTGA,-0.0567 ± 0.046
7,GCTGCTAC,-0.0028 ± 0.049
8,CTTGCTAA,0.21 ± 0.087
9,ACTCGGCG,0.0119 ± 0.037
10,ACCAAGAT,-0.102 ± 0.017
11,AGTGAAGG,-0.0333 ± 0.024
12,ACCGTATG,-0.0304 ± 0.011
13,CCACCAAA,0.104 ± 0.094
14,GATGGGCA,-0.0747 ± 0.034
15,ACAGTCCA,-0.158 ± 0.022
16,TAATGCTA,-0.257 ± 0.036
17,CAAGTCAA,0.0483 ± 0.043
18,GGTTCCTA,-0.281 ± 0.071
19,ACAAGAGG,-0.108 ± 0.048
20,AGCTTGAG,-0.24 ± 0.019
21,CCGCGGCA,0.00579 ± 0.04
22,CAACCATG,0.0922 ± 0.084
23,GTGGCTCA,0.0273 ± 0.048
24,ATCTCCAG,-0.0944 ± 0.0015
25,AAAGCACC,-0.113 ± 0.045

row,Sequence,PBM E-score of 8-mer
1,ATCTGTGA,0.282 ± 0.0073
2,CGTATGAG,0.0547 ± 0.0055
3,CGCTTCCC,0.0497 ± 0.058
4,AAAATCTG,0.0885 ± 0.15
5,TAGTAGCA,-0.106 ± 0.031
6,CGTAAGGA,-0.017 ± 0.026
7,AGAGTTCG,-0.201 ± 0.018
8,GTGACGTA,0.147 ± 0.025
9,AGTTCCAG,-0.106 ± 0.02
10,CCTCTCCC,0.0427 ± 0.042
11,ATCGATGA,-0.173 ± 0.068
12,AGTGCCGC,0.169 ± 0.017
13,ACCTACGA,-0.0325 ± 0.03
14,CCAGTCGC,0.017 ± 0.041
15,CCTCAGAA,-0.0721 ± 0.042
16,CACTGATA,0.121 ± 0.011
17,CAGGCCTA,-0.235 ± 0.05
18,GATGGGAA,-0.0546 ± 0.09
19,CCCCAACA,0.152 ± 0.088
20,CCTGAAGG,-0.24 ± 0.068
21,GCACAAAC,-0.0553 ± 0.052
22,CGCCCCGA,0.112 ± 0.066
23,AGGTTAAG,-0.186 ± 0.083
24,CTAGCGAA,0.182 ± 0.037
25,AGATGAAA,-0.162 ± 0.14

row,Sequence,PBM E-score of 8-mer
1,CGGTAACG,0.148 ± 0.027
2,GGCGAGCC,-0.113 ± 0.022
3,CGGCCTAA,-0.0861 ± 0.036
4,CAGACGCA,-0.238 ± 0.016
5,CATCGATC,-0.26 ± 0.0036
6,CGGTGGTC,-0.162 ± 0.035
7,ACATTCAT,-0.0631 ± 0.014
8,AGCCAGGA,-0.061 ± 0.035
9,TCAAACCA,-0.193 ± 0.022
10,CACTCTAC,0.141 ± 0.019
11,ACCAGCAG,-0.122 ± 0.0018
12,ATCGGGCA,0.0185 ± 0.015
13,TGCAACAA,0.0749 ± 0.018
14,GGCTCACC,0.0326 ± 0.0083
15,GTATTAGA,-0.314 ± 0.011
16,GCGGAGCC,-0.238 ± 0.082
17,ATAAGATG,-0.11 ± 0.082
18,ATACCACC,0.117 ± 0.031
19,CATGCTAG,0.0119 ± 0.078
20,CATATGTC,0.0187 ± 0.011
21,CTTGCTCC,-0.105 ± 0.082
22,GTCGACTA,0.123 ± 0.0065
